Experimental data: PubChem BioAssay AID1159614 (National Center for Advancing Translational Sciences (NCATS), 2016)
Screen size: about 45,000 compounds; about 65 (0.1%) were called active. Calls come from the whole dose curve; as a rule, active = well fitted activation curve with a large enough effect; inconclusive = small, poorly fitted or top-dose-only effect; inactive = no such curve, though single readings can be large or run the other way. The list shows a part of the results.

molecular target: Galactocerebrosidase (Homo sapiens) (UniProt P54803); assay: A Novel Cell-Based Assay to Identify Small Molecules for B -Galactocerebrosidase; conditions: 145M-Twi-hGALC-G270D cells (Twitcher mouse brain line with human GALC G270D), HMU-beta-Gal fluorescence, 48 h; series mostly up to 57.5 µM; activation: at the top concentration; note: 0% is about no effect; nearly all actives have a fitted effect of over 65% in size
Procedure, shortened: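 Fluorogenic HMU-b-Gal hydrolysis (0.1 mM final, pH 5.2 citrate-phosphate with 1 mg/mL sodium taurocholate; carbonate stop buffer) measures mutant GALC activity after compound treatment of live 145M-Twi Twitcher brain cells stably carrying human GALC-G270D, with wild-type GALC line alongside; activation sought.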

Chain of UniProt P54803 (P54803 whole entry, looked up): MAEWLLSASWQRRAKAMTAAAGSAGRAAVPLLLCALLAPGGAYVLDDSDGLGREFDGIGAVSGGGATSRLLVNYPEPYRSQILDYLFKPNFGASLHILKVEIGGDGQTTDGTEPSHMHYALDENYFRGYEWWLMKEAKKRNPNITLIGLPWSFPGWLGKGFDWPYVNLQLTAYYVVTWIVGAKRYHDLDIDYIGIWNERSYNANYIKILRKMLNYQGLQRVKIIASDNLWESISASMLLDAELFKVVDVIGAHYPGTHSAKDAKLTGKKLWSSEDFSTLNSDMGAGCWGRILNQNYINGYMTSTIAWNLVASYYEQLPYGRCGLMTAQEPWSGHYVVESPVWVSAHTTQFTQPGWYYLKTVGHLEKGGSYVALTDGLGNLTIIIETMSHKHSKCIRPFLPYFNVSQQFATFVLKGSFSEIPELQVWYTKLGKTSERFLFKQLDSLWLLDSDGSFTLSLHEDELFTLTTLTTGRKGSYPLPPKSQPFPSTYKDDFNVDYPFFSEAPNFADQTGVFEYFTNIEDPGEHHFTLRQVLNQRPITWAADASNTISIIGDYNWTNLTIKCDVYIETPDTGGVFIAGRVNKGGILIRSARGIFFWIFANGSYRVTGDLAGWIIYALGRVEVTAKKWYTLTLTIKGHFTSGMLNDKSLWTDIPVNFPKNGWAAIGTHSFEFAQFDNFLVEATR

activation, inactive:
CCOC(=O)c1c(C)c(-c2ccccc2)n(CC(=O)NC2CCCCCC2)c1C -12.4%, CC(C)=CCC/C(C)=C/CC/C(C)=C/CCC(=O)OC/C=C(\C)CCC=C(C)C -7.3%, CCn1c(=NC(=O)c2ccc(S(=O)(=O)N3CCCC3)cc2)sc2cc(Br)ccc21 4.58%, CC(C)c1ccc(NC(=O)c2ccc(Cn3nc(N4CCN(c5ccccc5)CC4)ccc3=O)o2)cc1 -2.87%, O=C(Cn1ncn2nc(-c3cccs3)cc2c1=O)NCc1ccccc1Cl -16.2%, COc1cccc(NC(=O)Cn2cc(C(=O)c3ccc(F)cc3)c(=O)c3cc(OC)ccc32)c1 -20.6%, CCc1oc2ccccc2c1C(=O)c1cc(I)c(O)c(I)c1 -7.11%, Cc1cccc(Cn2cnc3c(oc4ccccc43)c2=O)c1 -15.1%, C=CCc1ccc(OCc2ccc(C(=O)Nc3ccc(NC(C)=O)cc3)o2)c(OC)c1 -20.2%, Cc1ccc(C)c(N2C(=O)N(C)c3ccccc3S2(=O)=O)c1 -3.81%, COC(=O)c1c(NC(=O)c2nc(SCc3ccccc3C)ncc2Cl)sc2c1CCCC2 -12.8%, COc1ccc(-n2c(C)nc3cc(C(=O)NC4CCCCCC4)ccc32)cc1 -19.9%, CCCN(CCC)CCNC(=O)c1sc2nc3n(c(=O)c2c1C)CCCCC3 -9.04%, CC1CCCN(S(=O)(=O)c2ccc(N3CCCCS3(=O)=O)cc2)C1 (configuration not stated) 3.58%, COc1ccc(-c2c(C)nn3c(N4CCN(c5ccccc5F)CC4)cc(C)nc23)cc1OC -18.3%, CCc1c(C)sc2c1CCN(C(=O)Nc1cc(C)ccc1OC)C2c1ccc(F)cc1 (configuration not stated) -16.4%, Cc1ccc(NS(=O)(=O)c2ccc3[nH]c4c(c3c2)CCCCCC4)cc1 -5.35%, CCN1CCN(C(c2ccccc2F)c2c(O)cc(C)n(CCOC)c2=O)CC1 (configuration not stated) -6.39%, N#Cc1ccc(NC2=NS(=O)(=O)c3ccccc32)cc1 -24.4%, Cc1cc(C)cc(NC(=O)N2CCC(CN3CCc4ccccc4C3)CC2)c1 -10.5%, CCC(=O)N1CCc2cc(CNS(=O)(=O)c3ccc(Br)s3)ccc21 -3.12%, CCc1nc2ccc(C(=O)NCc3ccc(SC)cc3)cc2nc1CC -12.7%, OCCN1CCN(C(c2ccc(Cl)cc2Cl)c2sc3nc(-c4ccco4)nn3c2O)CC1 (configuration not stated) -6.23%, Clc1ccccc1-c1nnc(-c2ccccc2CNc2ccc(Br)cc2)o1 -18.6%, CCOc1ccc(-n2c(SCC(=O)Nc3ccc4c(c3)OCCO4)nc3c([nH]c4ccccc43)c2=O)cc1 -12.3%, CCN(C(=O)Cn1c(=O)nc(-c2ccccc2)c2cc(Cl)ccc21)c1cccc(C)c1 -16.3%, CCOc1ccccc1CNC(=O)c1cnc2sc(N3CCOCC3)nn2c1=O -7.23%, Cc1cncn1CCc1nc2c3ccccc3nc(SCC(=O)Nc3ccc(F)cc3)n2n1 -12.9%, O=C(N/N=C/c1ccc([N+](=O)[O-])o1)c1ccc(O)cc1 -15.9%, CCOc1ccc(CCNC(=O)Cn2ncc3c([nH]c4ccccc43)c2=O)cc1OCC 6.99%, CCc1cccc(NC(=O)C2CCC(CNS(=O)(=O)c3ccc4c(c3)CCCC(=O)N4)CC2)c1 (configuration not stated) -9.11%, Cc1ccc(Cl)cc1N1CCN(C(=O)c2ccc3c(c2)N(Cc2ccccc2F)C(=O)c2ccccc2S3=O)CC1 (configuration not stated) -7.69%, Cc1ccc(CNC(=O)c2sc3nc(-c4ccccc4)cn3c2C)cc1 -13.7%, O=C(CCS(=O)(=O)c1cc(Br)cc2c1N(C(=O)C1CC1)CC2)Nc1ccc(F)cc1 -11.3%, CCc1cccc(NC(=O)C(NS(=O)(=O)c2ccc3nc(C)sc3c2)C(C)C)c1 (configuration not stated) -17.7%, COc1ccc(-c2cc(OC(=O)c3ccccc3)c3c(C)oc(C)c3c(=O)c2)cc1OC -11.3%, CC(C)c1ccc2c(c1)NC(c1ccncc1)=NC(c1cccs1)=N2 -14.9%, COc1cccc(NC(CNS(=O)(=O)c2ccc(Cl)cc2)c2ccccc2)c1 (configuration not stated) -13.7%, C#CCSc1nc(-c2ccccc2)c2cc(Cl)ccc2n1 -9.95%, CCOc1ccccc1NC(=O)CCc1c(C)nc2c(c(C)nn2-c2ccccc2)c1C -19.4%, Cn1nnc2c(NCc3ccccc3)ncnc21 -2.43%, Cc1cc(C)cc(-n2c(C)nc3cc(C(=O)NCc4ccc(F)cc4)ccc32)c1 4.38%, O=C(NCc1ccc(F)cc1)c1ccc(Cn2c(SCc3ccc(F)cc3)nc3cccnc32)cc1 -12.5%, CCCN1C(=O)c2[nH]nc(-c3cccc(OC)c3)c2C1c1ccccn1 (configuration not stated) 2.87%, CCN(CCCNC(=O)c1cc2cc3ccc(OC)cc3nc2s1)c1cccc(C)c1 -11.8%, CC(C)Cn1c(=O)c2ccccc2n2c(CCC(=O)NCc3ccc(Cl)cc3)nnc12 -7.33%, Cc1cccc(Nc2cc(Cl)nc(SCC(=O)O)n2)c1C -10.5%, Cn1c(=O)oc2cc(S(=O)(=O)NCCC(=O)NCc3ccc(F)cc3)ccc21 -10.6%, CCCCn1c(=N)c(C(=O)NC2CCCCC2)cc2c(=O)n3cccc(C)c3nc21 -19.5%, O=C(CCC(=O)N1CCSc2ccccc21)NCc1ccccc1Cl -5.17%, CCOc1ccc(CCNC(=O)c2cn(-c3cccc(OC)c3)c(=O)c3ccccc23)cc1 -5.44%, Cc1cc(C)cc(NC(=O)c2cnn(-c3ccc(C)c(C)c3)c2C2CCNCC2)c1 -21.6%, CCC(C)NC(=O)c1ccc2c(c1)N(Cc1ccccc1F)C(=O)c1ccccc1S2=O (configuration not stated) -14.8%, COc1ccc(NC(=O)Cn2cnc3sc(C)c(S(=O)(=O)N4CCN(c5ccccc5OC)CC4)c3c2=O)cc1OC -26.6%, CCC1CN(C(=O)NCc2ccc(C)cc2)c2cc(Cl)ccc2O1 (configuration not stated) 0.265%, CCN1CCN(Cc2nc3cc(NC(=O)c4cc(OC)c(OC)c(OC)c4)ccc3n2CC)CC1 -17.7%, Cc1ccc(CNC(=O)N2CCC(CN3CCC(C)CC3)CC2)cc1 -2.51%, COc1ccc(S(=O)(=O)c2cn(CC(=O)Nc3cc(C)ccc3C)c3ccccc3c2=O)cc1 -13.3%, COc1ccc(S(=O)(=O)n2nc(-c3ccco3)nc2NCc2ccc(N(C)C)cc2)cc1 -12.9%, COc1cc(OC)cc(-c2nc3nc(C)c(CCC(=O)Nc4ccc(C)c(C)c4)c(C)n3n2)c1 11.6%, Cc1ccc(C)c(N2CCN(C(=O)Cn3ncc4c(=O)oc5ccccc5c43)CC2)c1 -4.8%, CC(C)c1ccc(NC(=O)CN2C(=O)COc3ccc(S(=O)(=O)N4CCCCC4)cc32)cc1 -0.874%, CCc1ccccc1NC(c1nnc(-c2cccc(F)c2)o1)c1ccc(F)cc1Cl (configuration not stated) -14.1%, Cc1ccc2scc(N3CCc4ccccc4C3)c(=O)c2c1 -18.2%, Cc1ccc(NS(=O)(=O)c2ccc3c(c2)n(C)c(=O)n3C)cc1C -10.4%, Cc1cc2nc(-c3ccc(OCc4ccccc4Cl)cc3)cc(C(F)(F)F)n2n1 -14.5%, COc1ccccc1NC(=O)Cn1c(SCC(=O)N(C)c2ccccc2)nc2ccccc21 -11.8%, O=C1N(Cc2ccccc2)c2ccc(Cl)cc2C1(O)c1c[nH]c2ccccc12 (configuration not stated) -3.02%, COc1cccc2c1cc1c(=O)n(CC(=O)N3CCN(c4ccc(Cl)cc4)CC3)nc(C)n12 -10.4%, Fc1ccc(Nc2ncnc3onc(-c4cccc(Cl)c4)c23)c(F)c1 -2.81%, Cc1ccc(S(=O)(=O)NC2(C(F)(F)F)NC(=O)N(CCc3ccccc3)C2=O)cc1 (configuration not stated) -13.9%, CCC(C(=O)NCc1ccco1)n1nc(C)c2c(C)n(-c3ccc(C)cc3)nc2c1=O (configuration not stated) -3.34%, Cn1c(=O)c2c(-c3cccc(Br)c3)n(C(C)(C)CO)cc2n(C)c1=O -20.4%, CN(C)c1ccc(CNC(=O)c2cccc(NC(=O)N3CCSc4ncccc43)c2)cc1 -24.1%, COc1cccc(C(=O)N2CCN(CCc3ccncc3)CC2)c1 13.4%, Cc1cccc(C(=O)NCC(=O)OCc2cc(=O)n3nc(CC(C)C)sc3n2)c1 -9.67%, O=C(Nc1ccccc1Cl)C1CCN(c2nc3ccccc3nc2C(F)(F)F)CC1 -7.84%, O=C(NCCn1cc(SCc2ccccc2Cl)c2ccccc21)c1cccs1 0.58%, Cc1cc(C)cc(NC(=O)Cn2cc(S(=O)(=O)NC(C)(C)C)c(S(=O)(=O)NC(C)(C)C)c2)c1 -5.11%, CCOc1ccccc1NC(=O)CSc1nnc2[nH]c(=O)cc(-c3ccccc3)n12 -2.05%, COc1ccc(-c2cc(C(F)(F)F)nc(S(C)(=O)=O)n2)cc1 -7.56%, CCOC(=O)c1sc2ccccc2c1S(=O)(=O)Nc1ccc(CC)cc1 -37.6%, CCOc1ccc(N2CC(NC(=O)/C=C\c3ccc4c(c3)OCO4)CC2=O)cc1 (configuration not stated) -9.82%, COc1ccc(-n2ccnc(NCc3ccccc3OC)c2=O)cc1 -12.4%, CNC(=O)c1c(NC(=O)c2ccc(S(=O)(=O)N3CCCCC3)cc2)sc2c1CCC2 -3.42%, COc1ccc(CNC(=O)CN2C(=O)COc3ccc(S(=O)(=O)Nc4ccccc4)cc32)cc1 -30.2%, CCOC(=O)c1cc2c(=O)n3ccccc3nc2n(C(C)C)c1=NC(=O)c1cc2ccccc2o1 -6.24%, COc1ccc(-n2nc(C(=O)N3CCCC(C)C3)c3c4ccccc4n(C)c3c2=O)cc1 (configuration not stated) 4.6%, CCc1ccc(C(=O)c2cn(CC(=O)NC3CCCCC3)c3nc(C)ccc3c2=O)cc1 2.35%, O=C(c1ccccc1)n1nc(-c2ccccc2)nc1NCc1ccc(F)cc1 -21.4%, O=C(Nc1ccc(F)c(F)c1)c1cc(S(=O)(=O)NC2CCCCCC2)ccc1F -17.6%, COc1ccc(NS(=O)(=O)c2cc(Br)cc3c2N(C(=O)C2CC2)CC3)cc1OC -12%, CCCCN(CCCC)CCNC(=O)Cn1nc(C)n2c(cc3sccc32)c1=O -21.7%, COc1cccc(CNC(=O)c2ccc3c(c2)c(C)c(C)n3Cc2ccccc2)c1OC -9.92%, CC(C)c1ccc(NC(=O)CS(=O)(=O)c2cccc3nsnc23)cc1 -12.6%, CSc1nc2c(c(=O)[nH]1)C(c1cccc(F)c1F)CC(=O)N2 (configuration not stated) -11.4%, NS(=O)(=O)c1ccc(CCNc2nccn(-c3cccc(C(F)(F)F)c3)c2=O)cc1 -15.1%
